Measured values reported in patent US20240376214A1, “ANTI-C-MET ANTIBODIES AND ANTIBODY-DRUG CONJUGATES” (BYONDIS B.V., priority 2021, published 2024).

How the values were obtained:
[1] = assay type: in vivo, cynomolgus monkey
Protocol: The in vivo toxicity of ADC3b was evaluated in male and female cynomolgus monkeys. Monkeys (5 M+5F/group) were dosed with ADC3b (5, 15 or 25 mg/kg Q3W, i.v. infusion).
It should be noted that in these normal tissues c-Met is not activated as no c-Met phosphorylation is observed in these tissues. Despite this extensive expression the tolerability of ADC3b is surprising. The highest non-severely toxic dose (HNSTD) for ADC3b is estimated to be 15 mg/kg/Q3 weeks. Given that many of the toxic effects of ADCs are observed in (normal) tissues expressing the target (Masson Hinrichs and Dixit, AAPS J. 2015, 17, 1055-1064), it is surprising that the c-Met targeting ADC ADC3b is so well tolerated.

[2] = Pharmacokinetics in head and neck HNXF1905 tumor bearing Ces1c KO mice; assay type: in vivo
Protocol: Pharmacokinetic/pharmacodynamic studies were performed with anti-c-Met ADC ADC3b in tumor-bearing CES1c KO SCID mice. These mice lack exon 5 of the Ces1c gene leading to the abolishment of the function of the enzyme. Further pharmacokinetic data were obtained from a toxicology study with ADC3b in cynomolgus monkey.
Mice were dosed with ADC3b (0.3, 1, 3 or 10 mg/kg, intravenous (i.v.) bolus injection) and plasma was collected at 1, 48, 168, 336, 504 hours post dosing. Monkeys were dosed with ADC3b (5, 15 or 25 mg/kg, i.v. infusion) and plasma was collected at 1, 6, 24, 48, 96, 192, 360, 504 hours. An LC-MS/MS based assay was used to quantify total antibody, and ligand binding assays were used to quantify conjugated antibody. The conjugated antibody assay captures ADC species that contain at least one linker drug.

[3] = Conjugated antibody, 0.3 mg/kg i.v.
[4] = Conjugated antibody, 1 mg/kg i.v.
[5] = Conjugated antibody, 3 mg/kg i.v.
[6] = Conjugated antibody, 10 mg/kg i.v.

B1: ADC3b: mAb3b site-specifically conjugated (HC 41C) to vc-seco-DUBA, DAR 1.9 (conjugate)
heavy: QVQLVQSGAEVKKPGASVKVSCKASGYTFTDYYLNWVRQACGQGLEWMGLIFPGNDKTEYSEKFKGRVTLTTDTSISTAYMELSSLTSDDTALYYCSGGDYGGFVYWGQGTLVTVSS[sequence of human IgG1 constant region not given]
light: DIQMTQSPSSLSASVGDRVTISCGASENIYGALNWYQQQPGKAPKVLIFGATNLADGVPSRFSGSGSGTDFTLTISSLQPEDFATYYCQNVLSSPLTFGQGTKLEIKRTVAAPSVFIFPPSDEQLKSGTASVVCLLNNFYPREAKVQWKVDNALQSGNSQESVTEQDSKDSTYSLSSTLTLSKADYEKHKVYACEVTHQGLSSPVTKSFNRGEC
toxicity profile ([1]; 4-cycle pivotal toxicity and PK study): remarkably mild toxicity profile | highest non-severely toxic dose (HNSTD) ([1]; 4-cycle study, 5, 15 or 25 mg/kg Q3W i.v. infusion, estimated): 15 mg/kg/Q3 weeks | AUClast [2, 3]: 896 µg·h/mL | Approximate t1/2 [2, 3]: 181 h | Cmax [2, 3]: 4850 ng/mL | AUClast [2, 4]: 2330 µg·h/mL | Approximate t1/2 [2, 4]: 221 h | Cmax [2, 4]: 11700 ng/mL | AUClast [2, 5]: 7500 µg·h/mL | Cmax [2, 5]: 46700 ng/mL | AUClast [2, 6]: 32300 µg·h/mL | Cmax [2, 6]: 130000 ng/mL | AUClast ([2]; Total antibody, 0.3 mg/kg i.v.): 1120 µg·h/mL | Approximate t1/2 ([2]; Total antibody, 0.3 mg/kg i.v.): 207 h | Cmax ([2]; Total antibody, 0.3 mg/kg i.v.): 3860 ng/mL | AUClast ([2]; Total antibody, 1 mg/kg i.v.): 3250 µg·h/mL | Cmax ([2]; Total antibody, 1 mg/kg i.v.): 11400 ng/mL | AUClast ([2]; Total antibody, 3 mg/kg i.v.): 11200 µg·h/mL | Cmax ([2]; Total antibody, 3 mg/kg i.v.): 73200 ng/mL | AUClast ([2]; Total antibody, 10 mg/kg i.v.): 41500 µg·h/mL | Cmax ([2]; Total antibody, 10 mg/kg i.v.): 181000 ng/mL
